Laboratory results reported in PMC7041945, “Misfolded proteins bind and activate death receptor 5 to trigger apoptosis during unresolved endoplasmic reticulum stress” (eLife, 2020).
No constants are given. Whether binding was seen depends on the method and setting. Binding seen in cells or lysates may run through a third protein. Some entries that bind do so weakly or less than the wild type. For part of these data: Sequences can lack the tags named with a protein.

By UniProt entry, the sequences of proteins in these tests, tags left out. Residues count along the entry.
UniProt O14763, residues 56-440: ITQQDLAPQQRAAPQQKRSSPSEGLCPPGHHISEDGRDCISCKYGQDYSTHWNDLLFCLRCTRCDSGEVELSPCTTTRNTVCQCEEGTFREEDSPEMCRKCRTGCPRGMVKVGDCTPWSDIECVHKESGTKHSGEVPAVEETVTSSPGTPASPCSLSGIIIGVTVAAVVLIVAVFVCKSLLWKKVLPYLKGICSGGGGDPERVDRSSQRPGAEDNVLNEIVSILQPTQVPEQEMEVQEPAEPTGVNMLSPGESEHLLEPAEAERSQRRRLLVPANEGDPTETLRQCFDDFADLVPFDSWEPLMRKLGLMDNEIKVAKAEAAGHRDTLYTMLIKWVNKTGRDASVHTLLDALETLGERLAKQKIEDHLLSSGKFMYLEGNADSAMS
UniProt Q13158: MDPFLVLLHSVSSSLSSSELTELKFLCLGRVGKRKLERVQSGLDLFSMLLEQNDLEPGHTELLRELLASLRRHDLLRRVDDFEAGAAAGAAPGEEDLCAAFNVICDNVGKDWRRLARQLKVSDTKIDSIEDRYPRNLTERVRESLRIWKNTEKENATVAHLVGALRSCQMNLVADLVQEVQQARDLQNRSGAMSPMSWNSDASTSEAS
UniProt Q14790: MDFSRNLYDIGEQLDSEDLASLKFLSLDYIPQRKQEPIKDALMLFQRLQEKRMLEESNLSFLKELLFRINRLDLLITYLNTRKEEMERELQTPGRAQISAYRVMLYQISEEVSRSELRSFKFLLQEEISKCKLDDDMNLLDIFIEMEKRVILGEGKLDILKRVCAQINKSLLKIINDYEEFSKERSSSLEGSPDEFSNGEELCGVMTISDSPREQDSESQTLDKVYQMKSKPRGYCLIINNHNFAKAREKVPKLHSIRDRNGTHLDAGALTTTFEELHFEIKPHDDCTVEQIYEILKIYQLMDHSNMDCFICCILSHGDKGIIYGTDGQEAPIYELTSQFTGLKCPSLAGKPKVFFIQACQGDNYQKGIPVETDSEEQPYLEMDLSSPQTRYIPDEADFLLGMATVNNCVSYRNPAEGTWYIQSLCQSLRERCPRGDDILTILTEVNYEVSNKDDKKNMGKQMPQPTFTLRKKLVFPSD

Key:
[1] = target: death receptor 5 (DR5), endogenous (human (endogenous in HCT116)) (UniProt O14763); assay: co-IP; immunoprecipitation of DR5 with anti-DR5 mAb 5C7-conjugated agarose beads from lysates of HCT116 transfected with MPZ-GFP or the empty vector; blotted for DR5, MPZ-GFP, FADD
[2] = target: T1, myelin protein zero (MPZ) tagged with a C-terminal monomeric EGFP (human) (UniProt P25189); assay: co-IP; GFP-Trap magnetic agarose beads, lysates of HCT116 24 hr after transfection; 30 mM HEPES pH 7.2, 150 mM NaCl, 1% Triton X-100; 4 hr at 4°C; immunoblot
T1 sequence: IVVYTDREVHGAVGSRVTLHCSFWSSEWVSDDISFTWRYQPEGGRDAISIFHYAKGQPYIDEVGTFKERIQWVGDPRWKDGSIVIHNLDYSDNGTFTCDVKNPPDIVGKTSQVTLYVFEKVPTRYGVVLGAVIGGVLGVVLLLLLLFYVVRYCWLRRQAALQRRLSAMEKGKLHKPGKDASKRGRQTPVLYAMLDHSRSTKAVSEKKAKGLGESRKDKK

binding [2]	Substance	binding [1]
binds	FADD, endogenous (from UniProt Q13158 1-208)	binds
binds	caspase 8, endogenous (from UniProt Q14790 1-479) (enzyme)	
